# Reference: the RNAGym collection of RNA variant scans (doi:10.1093/nar/gkz1192)
# Read counts are not given, so values of variants with three or more changes are uncertain.
# B1: CPEB3 Ribozyme (parent)
# chain: UAACAGGGGGCCACAGCAGAAGCGUUCACGUCGCAGCCCCUGUCAGAUUCUGGUGAAUCUGCGAAUUCUGCUGUAUAUCUC
# Variants of: B1
# Test: self-cleavage, relative activity (ratio to wild type); higher = more cleavage; in vitro, sequencing
# Method in brief: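 Relative activity compares each variant's cleaved/total read fraction with that of the unmutated ribozyme. To get these fractions, barcoded CPEB3 ribozyme libraries from rounds of error-prone PCR were transcribed with T7 RNA polymerase for 5 hours at 37°C and then given 15 min of DNase I treatment before EDTA was added. The RNAs were reverse transcribed with template switching and sequenced on Illumina, and DNA sequencing linked barcodes to variants. A minimum of 5 reads applied, and three batches were averaged.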
row,Variant,self-cleavage
1,A2U A15G G19U C27U A35U A65G U69A,0.11
2,A2U A13U U26A U67C A77G,0.23
3,A2U A28G A75U,0.79
4,A2U C17A U26A U41C A77U,0.33
5,A2U A47G U54C C68A U72A,0.26
6,A2U A3G U60C U66C U72A,0.31
7,A2G U25C A45G U48C A75C,0.09
8,A2G U48C A57G A77G,0.79
9,A2U A45G C62A U72A,0.35
10,A2G U25A C37G A57G,0.74
11,A2U G10A C23U U43C,0.06
12,A2U A18U A20G A21G U43C,0.09
13,A2G U26C A65C U69A,0.21
14,A2G U76A U78A,0.82
15,A2U A15U A18G A35U U41G U66A U78C,0.05
16,A2U A15U U48A U51C,0.19
17,A2U G16C U51C A64G A65G,0.2
18,A2G U31G U51C U67A,0.07
19,A2G U25A U49C U78A U80C,0.19
20,A2U A3C A13U A57G U78C C81U,1.25
21,A2U A5G U26C U51A,0.42
22,A2G U26C G63A A75G,0.13
23,A2U A15G A18U U25C U26G U78A,0.06
24,A2U A18U A35U A45G A56G,0.39

row,Variant,self-cleavage
1,A2G U26C A35G U49A U78C,0.35
2,A2U A56U A64G,0.37
3,A2G U43C U78C,0.51
4,A2U C17U G33C,0.22
5,A2U A45U G63A U72A U80C,0.47
6,A2G G24C U25C U31C U51C U60A,0.35
7,A2G U41C A47G U51C U80C,0.71
8,A2G U26C A77G,0.25
9,A2U A5G A13U U58G U72A U76A,0.3
10,A2G U25A U41C A64G,0.22
11,A2U A5U C23U A35U U72A U80C,0.08
12,A2G U41A U60C,0.08
13,A2G U25C U43G G53A C81A,0.58
14,A2U G8U A28G,0.07
15,A2U C12U A15G A20U U58C A64U,0.17
16,A2G U60A U72A,0.15
17,A2U A15G C62U U66C U76C,0.06
18,A2U A3G A18U A35U U76A U78C,0.19
19,A2U A45G A65C U67C,0.12
20,A2G U31C C59A,0.26
21,A2U A45U U54C U69C U78C U80C,0.16
22,A2U A18U U60C,0.17
23,A2U U25C A64C U80C,0.1
24,A2G G36U U67C U74C U78C,0.06

row,Variant,self-cleavage
1,A2G U31A C50G A77U,0.14
2,A2G U26C C79U,0.68
3,A2U A64G U66A,0.28
4,A2U A35G U54C A64U,0.98
5,A2U A28G U54C U58C U72A,0.08
6,A2U A13G C79A U80C,0.86
7,A2U A35U A64G U72A,0.12
8,A2U A13G A57G,0.92
9,A2G U25C A77G,0.26
10,A2G U25C G30A,0.1
11,A2U A15U U43C,0.22
12,A2U A13G A21G U72C,0.26
13,A2U G52C A64G C68U,0.62
14,A2U A15U A64C U80C,0.11
15,A2G U48C A57C,0.69
16,A2G U43A U54A,1.04
17,A2U A5G A15G C27U G33C G53U U76C,0.26
18,A2G U41A A56G U58A U78A,0.07
19,A2U A5U A15U A20G,0.45
20,A2U A18U C32U A75G,0.22
21,A2G U26C U31A U41C U76C A77U,0.25
22,A2U U25C A28G C38A A56G U69C,0.06
23,A2U G8A U43A U48C U72A,0.04
24,A2G U54C U78C,0.69

row,Variant,self-cleavage
1,A2U G9A A45G,0.41
2,A2U G33C A56U A57G U78C,0.12
3,A2G U31C U41C U72C U76C,0.71
4,A2U C34U A35G A64G U72C U74C,0.11
5,A2U A28G U48C U69A,0.12
6,A2U A5G U48C U51C G63U,0.23
7,A2U A3C A18U U41A U69A,0.23
8,A2U A35G U41C U66C A77G U78C,0.7
9,A2G U31A U43C U78A,0.09
10,A2U G7A C38A A56G,0.18
11,A2G U26C U48A,0.33
12,A2G U31G U43C A45G U48A U74C,0.24
13,A2G U31G U58C G70U U72C,0.05
14,A2U G9C A77G,0.43
15,A2G U26A U41A,0.06
16,A2U A20U A45G A56G U74C,0.35
17,A2U A13U U41A A77G,0.28
18,A2U A21G U41A,0.16
19,A2G U25C U60A,0.2
20,A2G U26A U69A C71A,0.08
21,A2U C29U G30A U49C U67A,0.17
22,A2U G7A A57G,0.35
23,A2U A65G G73C,0.13
24,A2G U41A U49C U66C U69C,0.03

row,Variant,self-cleavage
1,A2G U25C U31C U60C,0.08
2,A2U A15U U54C A64G U67C U76C,0.09
3,A2U A15U U25C A64G U67C,0.25
4,A2G G30A U48C U69C A77G,0.05
5,A2U A18C A20U U41C U60G U80A,0.04
6,A2G U41C U78C,0.88
7,A2U A15G A28U A35U A45U,0.22
8,A2G U54C U58C U67C,0.22
9,A2U G24U A56G U78C U80A,0.07
10,A2G U60C U67C U69C,0.17
11,A2G U25C U31C A56U,0.39
12,A2U A5U A15C U41C U67C U69C,0.14
13,A2U A15U A75U,0.91
14,A2U U25A U69C,0.19
15,A2U G8U A28C A65G,0.16
16,A2U A15G U26C A57G,0.31
17,A2U A75G U78C,0.53
18,A2U A3G A18U U25A U41A A45U U54C,0.07
19,A2U A13G A56G,0.46
20,A2G U25C C39A,0.5
21,A2U A21G U25C U54C A56G U72C A77G,0.06
22,A2U A21G A28G U41G,0.26
23,A2U A45U U51C A64G U67A,0.13
24,A2U A15U A21U U43G A45U A47G U78C,0

row,Variant,self-cleavage
1,A2G U26C C44U U54C,0.1
2,A2G U26C U60C A65G U66C U69C,0.17
3,A2U A35G U43C A47G,1.04
4,A2G U26C U31G,0.28
5,A2U A5U U60C U72C,0.42
6,A2G U74A U76C,1.15
7,A2U A56G U58A,0.26
8,A2G U54G G73A A77G,0.97
9,A2G U25A U26A U41C A47G C50A U72C,0.11
10,A2G U31C U41G,0.41
11,A2G U25C G33C U54A,0.39
12,A2G U49C A65G U66C,0.17
13,A2U A21G A47G U48C U49C U51A U72A,0.32
14,A2U U25C A28U A35G A45U U51C U80C,0.01
15,A2U G9U A57G U72C U74C A77G,0.05
16,A2G U60C U69A,0.18
17,A2U U25C U26C U43A U54C U78C,0.19
18,A2U C11U A56U A65U U67A U78C,0.04
19,A2U A3G A35G U41G A65G U69C,0.17
20,A2U A21U C23U,0.11
21,A2G U41C A45U U72G,0.2
22,A2G U43A A57U U69C U72A,0.13
23,A2G U31C U43A U60C U69C U74A U80C,0.27
24,A2U A3G A15G C32G U49A,0.14

row,Variant,self-cleavage
1,A2G U31C U51C U66C U72C U80C,0.14
2,A2U G7U A13U A28U U41C U51A A57G,0.18
3,A2G G33A A47G A64G,0.06
4,A2G U41A A45G,0.55
5,A2G U25C C32A U41C U66C,0.26
6,A2U G8A U26C A35G U60C,0.07
7,A2G U51C U60A A65G,0.09
8,A2U A45U U48C A64G,0.23
9,A2G U25A C34U A57G U69C,0.07
10,A2G G36A A45U U74C,0.07
11,A2U A5G A35C,0.53
12,A2G U26C U48C U58C,0.06
13,A2G U72C U76C,0.76
14,A2U A5G A18U U41A G52A U60A U74C,0.15
15,A2U C17U G33C U72C,0.19
16,A2U U25C A47U U51G U58C A75G,0.08
17,A2U A56U U60A,0.21
18,A2U A13U U67C,0.22
19,A2U A28G U67C U72C,0.16
20,A2U A18U G53A U60A,0.36
21,A2U C29U A56G,0.19
22,A2U A5G A20G U48C U72A A75G,0.11
23,A2G U25C G63U,0.09
